From the supplement of paper PMC10126150
Values marked as one replicate rest on one cluster of the flow cell; about a third of the high ones do not repeat.

System: ATP
Assay: switch fluorescence ratio, 500 uM ATP over buffer (Cy3 cluster intensity, sum of 5 cycles each) (fold (ratio)); higher = stronger signal-on switching upon ATP binding; sequences stand for … in TCGTCGGCAGCGTCAGATGTGTATAAGAGACAGTTTTTTTTTTTTTTTTTTTTTTTTT…TC
Settings: aptamer strand: ATP DNA aptamer (quencher-CACCTGGGGGAGTATTGCGGAGGAAGG + anchor), 100 nM annealed; ATP concentration: 500 uM; one replicate
Procedure, shortened: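 For every switch-domain sequence, the fluorescence ratio is the mean of per-cluster values, each being summed target-cycle Cy3 intensity over summed buffer-cycle Cy3 intensity. Clusters outside 100-1000 RFU were excluded. On a modified Illumina MiSeq flow-cell, the Cy3-labelled switching-strand clusters were annealed to 100 nM quencher-labelled ATP aptamer, imaged in selection buffer and then after 15 min with 500 uM ATP at 22 °C. Five such cycles were run, with NaOH stripping and re-annealing between them.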
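Note: ATP exposure 15 min at 22 °C before imaging.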

| Sequence | switch fluorescence ratio |
| --- | --- |
| GAGATGAGGT | 1.02 |
| CTGTGAGATT | 1.01 |
| GAAGGTCTGA | 1.03 |
| GTTTGCACTA | 1.18 |
| TCGGTGTTGA | 1.04 |
| CGGAAGATC | 1.1 |
| TTAATTTCGA | 0.965 |
| ATTCTATCAA | 0.975 |
| GCCCATACGG | 1.05 |
| GGCATGCAGC | 0.964 |
| GCTGGAAAA | 1.17 |
| GTTACGCCGG | 1.01 |
| CTAAAAGAG | 1.4 |
| TCAGGGCTCC | 1.04 |
| GATCAGACCA | 1.02 |
| CACGAAGTAA | 1.15 |
| AGGCGGATAC | 2.32 |
| TAGAGGTTCC | 1 |
| TAAATTTCA | 0.942 |
| GGTCATCCAC | 1.02 |
| AGCACTCCAT | 1.13 |
| AGAAACTATT | 1.05 |
| GATTTTTCTG | 1 |
| CGTGGAATAT | 0.988 |
| GGTGCTCCGG | 1.06 |

| Sequence | switch fluorescence ratio |
| --- | --- |
| CTTCATTGTT | 1.02 |
| ATGAGCCCCC | 0.98 |
| AGGTAGCTCC | 0.993 |
| CAATCAGCTA | 1.05 |
| ACAAGTACAC | 1.38 |
| ACCTTCGACC | 3.07 |
| TTCCCCCGGG | 1.06 |
| AGTGTAAGGT | 0.998 |
| TATAGTCCC | 1.04 |
| TCTCGGAATG | 1.06 |
| AACAGGAGGC | 0.93 |
| GAGGAGAAAC | 0.992 |
| GGTACTAGGA | 1.01 |
| AGTCTTGATG | 0.954 |
| AGGGGACTT | 1.03 |
| GCGCTGCAGA | 0.984 |
| GCGCTACACT | 1.28 |
| ATACTCCCTC | 2.76 |
| TGATGTGGTA | 0.956 |
| ACAACGTAAA | 1.02 |
| GTCTTTTTA | 0.955 |
| CGCTGGGGCC | 1.01 |
| TTGTTCAGTC | 0.994 |
| TTTTCCGGCT | 1.03 |
| GAGATTCATA | 1.01 |

| Sequence | switch fluorescence ratio |
| --- | --- |
| ACGGCGGCTC | 1.05 |
| TATTGTAGAA | 1 |
| AAATCCAAGC | 1.09 |
| ACATATCACA | 1.07 |
| GTCAGGATGT | 1.01 |
| ACAGGTGATA | 1.56 |
| TTAAGAG | 1.02 |
| TATCGAGGGC | 1.01 |
| GATTGATTAA | 1.01 |
| GTCAATCGAG | 1.03 |
| AACGCTCGCG | 0.976 |
| GCTTTGTCCT | 1.04 |
| TTCGGATCGT | 1.23 |
| CATAAGCATC | 1.36 |
| CGCCCGTATC | 1.13 |
| CAGGCTTTGT | 0.963 |
| ATGTTCGACG | 0.965 |
| TAATATAGCC | 0.989 |
| GTATGGCTGT | 0.979 |
| CATGTCAACA | 0.963 |
| GGAAAGTGTA | 1.01 |
| CACTTCTCTT | 0.994 |
| AGACTATCCT | 1.05 |
| ATCATGTTAA | 0.981 |
| GGAACTGCTA | 1.06 |

| Sequence | switch fluorescence ratio |
| --- | --- |
| AGAGATACCT | 1.19 |
| GAATGAGAGT | 1.01 |
| TCAGTCGGGA | 1.01 |
| GTAATAGAAT | 0.973 |
| TTTAGAGATC | 1.01 |
| ACCCGAGTT | 0.985 |
| GATGCTAGCT | 0.932 |
| GGGAGATATC | 0.974 |
| TTATGGCCGC | 1.03 |
| CGATGGCCAC | 1.01 |
| TGCCATCCGC | 1.4 |
| TCTCTTTGGT | 0.997 |
| ATCTATTACA | 1.01 |
| GAGGATCGTC | 0.965 |
| TGGAGATAGT | 0.987 |
| GAAGGCCTGA | 1 |
| GTGTCTGAAG | 1.02 |
| ATTTTTTTCA | 0.918 |
| GCGTGTTAAC | 0.996 |
| TCCGGACAGG | 1.13 |
| AAGTATGTT | 0.988 |
| GTTTGCATTA | 1.02 |
| GCGGTCGAC | 0.986 |
| AGGGTCCTAG | 0.959 |
| GCGGGCGGAA | 0.964 |

| Sequence | switch fluorescence ratio |
| --- | --- |
| AATATGCGGT | 0.948 |
| ACTGATTTGC | 1.06 |
| ACTTGCTTTT | 1.03 |
| TACATTTACT | 1.16 |
| AGTGAAATGA | 0.976 |
| AAGCAAATTT | 1.07 |
| TCTACTACGC | 1.42 |
| GTGCGAAGGA | 1 |
| CATAAGTTTT | 0.999 |
| TAGAATTGAA | 1.01 |
| TCTCCATTCA | 0.995 |
| GGACATCAGT | 0.972 |
| GTTTGGGCCA | 1.02 |
| TTAGAATCGT | 1.03 |
| GTGACGCCTT | 0.99 |
| TGCTAGTAGT | 1.02 |
| GACCCCGGAG | 1.48 |
| TAATATTCGC | 1.05 |
| CCCCCACAGT | 2.13 |
| TATTTCAGTA | 1.04 |
| CTCTCAGATT | 1.05 |
| CATGGTAGCG | 0.973 |
| TCCCCCCTAC | 2.29 |
| CGCTACAGGC | 1.02 |
| ATTTGAAAGA | 0.967 |

| Sequence | switch fluorescence ratio |
| --- | --- |
| AGATCGGGCA | 1.01 |
| TATAATGTAG | 1.02 |
| TGTGTCATAG | 0.978 |
| GGACTTGAAG | 1.07 |
| AGAAATTCGG | 0.998 |
| GGTGTGTGGA | 1.01 |
| TATAAATGA | 1.02 |
| CGAACTCCAT | 0.997 |
| AAAGACGATT | 0.995 |
| GGAGTGGCTG | 0.951 |
| GGCACTCCTT | 1.03 |
| TAACCCCTCT | 1.03 |
| CCGATAAAAT | 1.37 |
| TCGCGATTGT | 1.05 |
| GCGTGATGAC | 1.04 |
| CGCCCTTGCA | 1.03 |
| TGGGTGTCTT | 1.01 |
| TAGTTGATCA | 1.01 |
| ATGACAACCC | 1.03 |
| TTGGGACAGG | 1.02 |
| ATATTAAATC | 0.991 |
| AAGGGATAA | 0.998 |
| CACCATTCGG | 1.02 |
| CTATATGTAG | 1.01 |
| AACTTAGGAT | 0.987 |

| Sequence | switch fluorescence ratio |
| --- | --- |
| ACTGTATATA | 1.24 |
| AGGCGACGAG | 1.01 |
| AATGAAGAGC | 1.12 |
| GAGTTAATGG | 0.986 |
| AACGCACAGC | 1.45 |
| CCGTCACCTA | 1.12 |
| GCGGAAAAGG | 0.982 |
| AGGTGCTCTA | 1.05 |
| TTGGAGTGCC | 1.07 |
| TTGTATCTCA | 0.955 |
| AACTAGATGA | 1.06 |
| TTTTGAACTT | 1.09 |
| TATGGCTTAC | 1.28 |
| GTGTTAGCA | 1.05 |
| ACGTGCATTT | 0.983 |
| TCTTCCTACT | 1.4 |
| CTCTTTCTGA | 0.934 |
| GTCCTAGGGC | 1.05 |
| GAACTCTCTA | 1.01 |
| CAAAATGTAG | 1.02 |
| TTGACCACGT | 0.987 |
| TAGTTTGGTG | 1.02 |
| GGAAGAAGTT | 1.04 |
| GCTATATCAC | 1.02 |
| CTTGGGGACT | 1.02 |

| Sequence | switch fluorescence ratio |
| --- | --- |
| CGGGCCAATG | 1.04 |
| CGTGTTTTG | 0.955 |
| CAGGTAGGC | 1.05 |
| ACGGTGTGCA | 0.986 |
| ATCTCCCCAG | 2.24 |
| TGCAGCAAGC | 3.98 |
| GAGATGTGGA | 0.998 |
| TGTCTTCTTG | 1.01 |
| TAAGGTACTT | 1.03 |
| AACCTTCCCG | 1.88 |
| ATCATATCCG | 0.926 |
| ACGCTAAATC | 1.44 |
| TAGCTCTGAG | 1.02 |
| GGCCGTTGAG | 0.993 |
| TGGAGCCTAC | 1.92 |
| ATTTGAGGAG | 1 |
| GCAGCGATGG | 4.26 |
| GTAGGGAGAG | 1 |
| ACCAGTTCTC | 0.994 |
| ACGGAGGGAG | 1.02 |
| CGTGCTTCCT | 1.11 |
| AAGGCTTTAG | 1.06 |
| AGGTAACCGA | 1 |
| TCTAACTCG | 0.973 |
| TTCAGGCTAG | 0.971 |
